Test results reported in PubChem BioAssay AID2676 (National Center for Advancing Translational Sciences (NCATS), 2010).
The campaign covered roughly 370,000 compounds. About 1,100 (0.3%) were called active. This list was built around the results that the source calls inconclusive (neither active nor inactive); the mix of calls is not that of the screen. Calls come from the whole dose curve; as a rule, active = well fitted activation curve with a large enough effect; inconclusive = small, poorly fitted or top-dose-only effect; inactive = flat fitted curve, though single readings scatter. Potencies beside an inconclusive call are fits to weak or partial responses and may not hold up.

molecular target: Relaxin receptor 1 (Homo sapiens) (UniProt Q9HBX9); assay: qHTS Assay for Agonists of the Relaxin Receptor RXFP1; conditions: HEK293T-RXFP1 cAMP TR-FRET, 30 min; series mostly up to 57.5 µM; note: nearly all actives have a fitted effect of over 60% in size
Sequence of UniProt Q9HBX9 (Q9HBX9 whole entry, looked up): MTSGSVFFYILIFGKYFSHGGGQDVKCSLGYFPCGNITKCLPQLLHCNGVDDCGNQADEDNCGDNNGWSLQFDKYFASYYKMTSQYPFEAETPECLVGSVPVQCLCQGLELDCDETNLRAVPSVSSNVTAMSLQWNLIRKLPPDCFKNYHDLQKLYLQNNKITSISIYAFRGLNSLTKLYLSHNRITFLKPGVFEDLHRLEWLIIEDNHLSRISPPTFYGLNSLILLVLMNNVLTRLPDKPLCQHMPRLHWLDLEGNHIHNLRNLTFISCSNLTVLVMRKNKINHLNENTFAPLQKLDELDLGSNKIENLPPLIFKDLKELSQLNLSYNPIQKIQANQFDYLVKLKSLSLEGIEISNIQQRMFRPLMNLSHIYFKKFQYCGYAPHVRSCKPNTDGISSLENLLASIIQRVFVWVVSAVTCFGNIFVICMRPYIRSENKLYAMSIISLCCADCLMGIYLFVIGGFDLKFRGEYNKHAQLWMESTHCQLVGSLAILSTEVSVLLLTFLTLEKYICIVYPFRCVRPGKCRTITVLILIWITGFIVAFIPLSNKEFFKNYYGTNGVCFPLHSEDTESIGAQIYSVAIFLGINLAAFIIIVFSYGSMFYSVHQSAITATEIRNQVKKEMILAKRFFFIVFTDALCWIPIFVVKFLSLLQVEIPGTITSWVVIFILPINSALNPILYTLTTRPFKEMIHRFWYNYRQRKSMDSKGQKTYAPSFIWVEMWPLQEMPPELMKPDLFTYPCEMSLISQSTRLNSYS
Outline: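 cAMP rise read by TR-FRET after 30 min, 37C compound exposure (up to 58 uM) in RXFP1-transfected HEK293 cells with Ro 20174 present. EC50 from Hill-equation fits, with 29 nM porcine relaxin as 100% and buffer as basal.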
Potency is the fitted concentration of half-maximal effect; tags give direction and shape of the fitted curve.

SMILES	Potency
Cc1ccc(OCC(=O)Nc2cccc(OCc3cc(=O)n4ccccc4n3)c2)cc1C	inconclusive: 39.8 µM [activator, single point]
Cc1c2cnn(CC(=O)N3CCN(c4ccccc4)CC3)c(=O)c2c(C)n1Cc1ccc(F)cc1	inactive
CCc1ccccc1NC(=O)C(CC)Sc1ncnc2c1sc1ccccc12 (configuration not stated)	inconclusive: 39.8 µM [activator, single point]
Cc1cccc(OCc2cc(=O)n3c(-c4ccccc4)csc3n2)c1C	inconclusive: 28.2 µM [activator, single point]
O=[N+]([O-])c1ccc2oc(-c3ccccc3)nc2c1	inactive
CCCOc1ccc(NC(=O)c2cc3cc(C)ccc3[nH]2)cc1	inconclusive: 22.4 µM [activator, partial curve]
NNC(=O)c1cccn(Cc2ccc(Cl)cc2Cl)c1=O	inactive
Cc1c(C(=O)N2CCC(c3nc4ccccc4s3)CC2)oc2cc(Br)ccc12	inconclusive: 17.8 µM [activator, partial curve]
CC1=C(C)C(C)=C(C#N)C(=C(C#N)C#N)N1	inconclusive: 28.2 µM [activator, partial curve]
COc1ccc(Br)cc1CNC(=O)c1cc(=O)[nH]c2ccc(S(=O)(=O)N3CCCC3)cc12	inactive
CCOc1ccccc1NC(=O)Cn1c(=O)n(CCC(C)C)c(=O)c2cccnc21	inconclusive: 35.5 µM [activator, single point]
Cc1ccc2c(=O)c(C(=O)c3ccccc3)cn(CC(=O)Nc3ccc4c(c3)OCCO4)c2n1	inconclusive: 35.5 µM [activator, single point]
O=C(C1=C(O)C(=O)N(CCCn2ccnc2)C1c1ccccc1)c1ccco1 (configuration not stated)	inconclusive: 28.2 µM [activator, partial curve]
CCc1nc2oc3ccc(C)cc3c(=O)c2cc1C(=O)OC	inconclusive: 39.8 µM [activator, single point]
O=C(COc1ncnc2ccc(Br)cc12)NCc1ccco1	inconclusive: 20 µM [activator, partial curve]
Cc1c(CNC2CCCCC2)c(C(=O)O)c(C)n1Cc1ccccc1F	inactive
Cc1cccc(Nc2ncc(NC(=O)c3cccc(F)c3)c(Nc3cccc(C)c3)n2)c1	inactive
CC1CCCC(C)N1C(=O)COC(=O)c1n[nH]c(=O)c2ccccc12 (configuration not stated)	inactive
CN(C)S(=O)(=O)c1ccc(C(=O)OCC(=O)Nc2cccnc2Cl)cc1	active: 14.1 µM
CCc1ccc(N2CC(O)=C(c3nc4ccccc4c(=O)[nH]3)C2=N)cc1	inconclusive: 35.5 µM [activator, single point]
CCOC(=O)N1CCN(C(=O)c2cc3c(s2)-c2ccccc2OC3)CC1	inconclusive: 17.8 µM [activator, partial curve]
N/C(=N\OC(=O)COc1ccc2ccccc2c1Br)c1cccnc1	active: 15.8 µM
O=C(O)Cc1sc(-c2ccccc2Cl)nc1-c1ccccc1	inconclusive: 31.6 µM [activator, partial curve]
O=c1cc2c(=O)oc3cc(O)c(O)oc3c2c(O)c1O	inactive

SMILES	Potency
CCOC(=O)c1c(S(=O)(=O)N2CCCC(C(=O)Nc3cccc(C#N)c3)C2)c(C)n(C)c1C (configuration not stated)	inactive
CC(Oc1ccccc1)C(=O)Nc1ccc(OCc2cc(=O)n3ccsc3n2)cc1 (configuration not stated)	inconclusive: 39.8 µM [activator, single point]
CCCCN(C)CCNC(=O)C1CCCN(S(=O)(=O)c2ccc3c(c2)oc(=O)n3C)C1 (configuration not stated)	inconclusive: 39.8 µM [activator, single point]
Cc1ccc(NC(=O)C2CCN(S(=O)(=O)c3ccc(F)cc3)CC2)cc1	inactive
Cn1c(=O)c2c(nc(SCC(=O)NC3CCCC3)n2C)n(C)c1=O	inconclusive: 28.2 µM [activator, partial curve]
COC(=O)Cn1cnc2c(C#N)c3n(c2c1=O)CCCC3	inconclusive: 15.8 µM [activator, partial curve]
O=C(Nc1cccnc1)c1ccc(COc2cc(Cl)ccc2Cl)o1	inactive
COc1cc(OC)nc(-n2ncc(Br)c(Br)c2=O)n1	inactive
CCCCn1c(SCC(=O)NCc2ccco2)nc2ccc(N3CCOCC3)cc2c1=O	inactive
COC(=O)CSc1nc2ccccc2nc1SCC(=O)OC	inconclusive: 20 µM [activator, partial curve]
O=C(O)c1ccc(NC(=S)NC(=O)C(c2ccccc2)c2ccccc2)cc1	inactive
CCCCn1c(SCC(=O)Nc2cccc(OC)c2)nc2c(sc3ccccc32)c1=O	inconclusive: 28.2 µM [activator, single point]
Cc1ccc(C2c3c(-c4cc(C)ccc4O)n[nH]c3C(=O)N2Cc2ccco2)cc1 (configuration not stated)	inactive
CCOC(=O)c1cnc2c(C)cc(C)cc2c1Nc1cccc(C(=O)O)c1	inactive
O=C(CNCc1cccnc1)Nc1cc(C(F)(F)F)ccc1N1CCOCC1	inactive
NS(=O)(=O)c1ccc(NC(=O)c2ccc3c(c2)OCO3)cc1	inconclusive: 39.8 µM [activator, single point]
CCOC(=O)c1ccccc1NC(=O)NC(C)c1c(-n2cccc2)sc(C)c1C (configuration not stated)	inconclusive: 39.8 µM [activator, single point]
CSC1=C(C#N)C(CC(C)C)C2=C(CCCC2=O)N1 (configuration not stated)	inactive
Cc1ccc(Cn2cccc(NC(=O)NCc3ccccc3)c2=O)cc1	inactive
Cn1ccc(=S)c2ccccc21	inconclusive: 22.4 µM [activator, single point]
COc1cccc(-c2cc3c(=O)n(-c4ccccc4)c(=S)[nH]c3s2)c1	inconclusive: 22.4 µM [activator, partial curve]
N#Cc1c(-c2ccc(F)cc2)cc(C2CC2)nc1SCC(=O)c1cccs1	inconclusive: 28.2 µM [activator, partial curve]
COC(=O)c1ccc2c(=O)n3nc(Nc4ccc(F)cc4F)sc3nc2c1	inconclusive: 35.5 µM [activator, single point]
